Publication PMC11595209
These are yes or no findings as the source states them, for the method shown. In cells and extracts the contact can be indirect. Some binding calls cover weakened binding; strength is not graded here. For part of these data: Tags and fused reporters may be left off the sequences shown.

Amino acid sequences for entries named in this document (tags omitted).
UniProt P03545: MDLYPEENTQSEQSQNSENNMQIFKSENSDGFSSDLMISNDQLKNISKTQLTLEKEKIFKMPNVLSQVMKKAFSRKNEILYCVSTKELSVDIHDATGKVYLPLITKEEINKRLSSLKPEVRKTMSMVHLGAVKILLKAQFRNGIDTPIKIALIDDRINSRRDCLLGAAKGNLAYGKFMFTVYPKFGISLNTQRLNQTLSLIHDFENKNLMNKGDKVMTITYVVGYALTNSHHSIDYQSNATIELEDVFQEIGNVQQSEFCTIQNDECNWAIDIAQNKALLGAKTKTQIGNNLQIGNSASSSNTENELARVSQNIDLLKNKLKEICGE
UniProt Q00271: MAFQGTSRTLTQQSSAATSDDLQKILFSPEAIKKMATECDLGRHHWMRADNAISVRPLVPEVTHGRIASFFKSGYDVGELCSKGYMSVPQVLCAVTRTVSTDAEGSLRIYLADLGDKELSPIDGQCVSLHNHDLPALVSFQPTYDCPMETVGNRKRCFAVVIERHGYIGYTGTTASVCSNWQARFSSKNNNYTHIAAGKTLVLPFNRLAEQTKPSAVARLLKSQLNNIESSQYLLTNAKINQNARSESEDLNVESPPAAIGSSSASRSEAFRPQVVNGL
UniProt A0A1S3YFP6: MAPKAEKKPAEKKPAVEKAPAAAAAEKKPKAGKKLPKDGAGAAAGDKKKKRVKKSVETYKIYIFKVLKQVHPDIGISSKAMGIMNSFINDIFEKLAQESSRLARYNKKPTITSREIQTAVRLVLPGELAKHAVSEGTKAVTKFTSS

Legend:
Assay in all cases: split reporter; BiFC with NtGFP and CtGFP fragments of EGFP fused at the N- or C-terminus of each protein; co-agroinfiltration of N. benthamiana leaves (OD600 0.4, mixed in equal proportions); confocal microscopy
[1] = target: cauliflower mosaic virus (CaMV) movement protein, BiFC fusion (cauliflower mosaic virus) (UniProt P03545)
[2] = target: N. tabacum actin, BiFC fusion (N. tabacum)
[3] = target: cucumber mosaic virus (CMV) movement protein, BiFC fusion (cucumber mosaic virus) (UniProt Q00271)
[4] = target: T1, N. tabacum peroxidase, BiFC fusion (N. tabacum)
T1 sequence: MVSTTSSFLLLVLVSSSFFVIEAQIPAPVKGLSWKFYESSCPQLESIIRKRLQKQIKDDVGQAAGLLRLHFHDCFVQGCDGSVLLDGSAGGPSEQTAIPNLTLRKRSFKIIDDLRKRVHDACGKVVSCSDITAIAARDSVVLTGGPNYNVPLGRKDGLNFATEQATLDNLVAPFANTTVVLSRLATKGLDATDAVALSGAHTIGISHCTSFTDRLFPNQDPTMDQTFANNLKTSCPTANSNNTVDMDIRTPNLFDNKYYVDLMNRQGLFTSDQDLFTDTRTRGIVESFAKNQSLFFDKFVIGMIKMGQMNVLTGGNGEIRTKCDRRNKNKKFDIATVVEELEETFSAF

[5] = target: T2, N. tabacum 14-3-3A protein, BiFC fusion (N. tabacum)
T2 sequence: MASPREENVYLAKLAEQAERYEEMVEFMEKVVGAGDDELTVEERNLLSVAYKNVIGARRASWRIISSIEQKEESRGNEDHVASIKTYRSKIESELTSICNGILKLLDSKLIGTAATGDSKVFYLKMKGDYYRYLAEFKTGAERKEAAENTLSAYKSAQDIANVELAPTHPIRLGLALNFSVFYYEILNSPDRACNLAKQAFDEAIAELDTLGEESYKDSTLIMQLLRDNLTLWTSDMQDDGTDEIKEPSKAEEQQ

Substance	binding [1]	binding [2]	binding [3]	binding [4]	binding [5]
N. tabacum histone 2B-like, BiFC fusion (from UniProt A0A1S3YFP6 1-146)	binds	binds	binds	binds	binds
N. tabacum actin, BiFC fusion (from UniProt A0AC58SQG1 1-377)				binds	binds
N. tabacum peroxidase, BiFC fusion (from UniProt A0A1S4BIW4 1-348)	no binding		no binding		
